# Among all 310,000 compounds or so, about 18,000 (5.8%) were called active. The shares of active, inactive and inconclusive entries below differ from those in the screen. The call rests on the fitted dose curve; in most records, active means well fitted inhibition curve with a large enough effect; inconclusive means small, poorly fitted or top-dose-only effect, or another doubt; inactive means no such curve, though single readings can be large or run the other way. No potency is given beside an inconclusive call; the fits are too rough.
# Test: Primary qHTS for delayed death inhibitors of the malarial parasite plastid, 48 hour incubation
# Settings: P. falciparum luciferase growth in erythrocytes; series mostly up to 28.7 µM; activity change, negative = inhibition: at the top concentration
# How it was run: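 Cell-based growth assay: transgenic P. falciparum expressing firefly luciferase, cultured in red cells within RPMI 1640 containing 0.5% w/v Albumax, 24 mM bicarbonate and gentamycin. A drop in luciferase activity indicates inhibition.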
# On the % scale 0 is the no-effect control and ±100 the full control effect; potency means the concentration at half of the fitted maximal effect; tags describe the fitted curve by direction and shape.
SMILES,Potency,"activity change, negative = inhibition"
N[C@@H](Cc1c[nH]c2ccccc12)c1nnc(SCc2ccc(Cl)cc2)o1,"inconclusive [inhibitor, single point]",
O=C(CSc1nc2ccccc2[nH]1)Nc1c(F)c(F)c(F)c(F)c1F,,inactive: 34.4%
CC(C)CCn1c(=O)c2c(nc3n2CCCN3Cc2ccccc2)n(C)c1=O,active: 9.28 µM,
COc1cccc(OC)c1/C=C/C(=O)NC1CCCCC1,,inactive: 16.4%
CC(NC(=O)CCn1nc(-c2ccc(Cl)cc2)ccc1=O)c1ccccc1 (stereo not given),,inactive: -10.2%
O=C(/C(=C\c1ccccc1)c1nc2ccccc2[nH]1)c1ccc(Cl)cc1,"inconclusive [inhibitor, single point]",
O=C(CN1CCN(C(=O)c2cncn2-c2ccccc2)CC1)Nc1ccccc1Cl,"inconclusive [inhibitor, single point]",
CN1CCN(C2CCN(S(=O)(=O)c3ccc(C(C)(C)C)cc3)CC2)CC1,,inactive: 1.35%
CCOC(=O)N1CCN(CC(=O)Nc2cc(OCC)ccc2OCC)CC1,"inconclusive [inhibitor, partial curve]",
O=C(C1CCC1)N1CCC(c2nc3c(nnn3Cc3c(F)cccc3Cl)c(=O)[nH]2)CC1,active: 13.1 µM,
CCN(CC)S(=O)(=O)c1ccc2oc(C(=O)NCc3ccc(F)cc3)c(C)c2c1,active: 8.28 µM,
CC(=O)N1CCN(c2ccc(NC(=O)c3cccc(Cl)c3)cc2)CC1,,inactive: 98.5%
CCN1CCN(C(=O)C2CCCN(S(=O)(=O)c3cc(Cl)ccc3Cl)C2)CC1 (stereo not given),"inconclusive [inhibitor, partial curve, poor fit]",
COc1c(C)cc(C(=O)C2CCCN(C(=O)/C=C/c3ccccn3)C2)cc1C (stereo not given),,inactive: 0.125%
O=C(Cn1ncc2c3ccccc3n(Cc3ccccc3)c2c1=O)N1CCC2(CC1)OCCO2,"inconclusive [inhibitor, partial curve, poor fit]",
C/C=C/Cn1c(SCc2ccccc2)nc2c1c(=O)[nH]c(=O)n2C,"inconclusive [inhibitor, partial curve]",
CCOC(CNC(=O)Cn1nc(Cc2ccncc2)c2ccccc2c1=O)OCC,,inactive: 13.1%
O=C(Nc1cccc(N2CCCC2)c1)c1cccs1,"inconclusive [inhibitor, single point]",
CC1CC(C)CN(S(=O)(=O)c2ccc(C(=O)N3CCN(c4ccccc4)CC3)cc2)C1 (stereo not given),"inconclusive [inhibitor, partial curve]",
C/C(=N\NC(=O)c1nc2ccccn2c1C)c1ccco1,,inactive: 70.8%
Cc1ccc(NC(=O)c2cccc(S(=O)(=O)N3CCN(c4ccccc4)CC3)c2)nc1,"inconclusive [inhibitor, single point]",
COc1ccc(Nc2ccc(OC)cc2)cc1,"inconclusive [inhibitor, partial curve, poor fit]",
COc1ccccc1CN1CN(S(=O)(=O)c2ccccc2)c2nc3ccccc3nc21,"inconclusive [inhibitor, partial curve]",

SMILES,Potency,"activity change, negative = inhibition"
COc1ccc(C(CNC(=O)C(C)(C)Oc2ccc(Cl)cc2)N2CCCC2)cc1 (stereo not given),"inconclusive [inhibitor, single point]",
O=C(Nc1cccc(-n2cccn2)c1)C1CCCN(Cc2ccccc2F)C1 (stereo not given),"inconclusive [inhibitor, single point]",
CCOC(=O)c1cnc2ccc(C)cc2c1Sc1ccccc1,"inconclusive [inhibitor, single point]",
CCCCNC(=O)Nc1ccc(C(O)(C(=O)OCC)C(F)(F)F)cc1 (stereo not given),"inconclusive [inhibitor, single point]",
COc1ccccc1CNc1ncnc2c1nnn2Cc1ccccc1,"inconclusive [inhibitor, single point]",
CC(C)c1nnc(N2C(=O)C(O)=C(C(=O)c3cccs3)C2c2ccccc2)s1 (stereo not given),,inactive: 21.3%
CCOc1ccc(S(=O)(=O)N2CCCCC2)cc1NC(=O)C1CCC1,,inactive: 0.918%
CCOc1ccccc1C(=O)NCCCN1CCN(CCCNC(=O)c2ccccc2OCC)CC1,"inconclusive [inhibitor, partial curve]",
CCOc1ccc(NC(=O)CN(C)C(=O)c2cc3c(s2)CCC(C)C3)cc1OCC (stereo not given),"inconclusive [inhibitor, single point]",
Cc1ccc(OCCCCN2CCc3ccccc3C2)cc1,,inactive: -13.6%
Cc1cc(=O)n2nc(N3CCCC(C(=O)NCCc4ccccc4)C3)sc2n1 (stereo not given),"inconclusive [inhibitor, partial curve, poor fit]",
CC1=C2C(=O)C3C(CC=C4CC(OC5OC(O)C(O)C(O)C5CO)CCC43C)C2CCC12OC1CC(C)CNC1C2C (stereo not given),"inconclusive [inhibitor, partial curve, poor fit]",
CC1CCCCN1S(=O)(=O)c1ccc(NC(=O)c2cccs2)cc1 (stereo not given),active: 14.7 µM,
CSc1ccc(CNC(=O)C2CCC(=O)N(CCc3cccc(F)c3)C2)cc1 (stereo not given),,inactive: 32.9%
O=C(COC(=O)c1ccccc1F)NC1CCCC1,,inactive: 21.1%
Cc1no[n+]([O-])c1COc1cccc(/C=N/Nc2nncn2N)c1,"inconclusive [inhibitor, partial curve, poor fit]",
CCOc1ccc(OC(=O)c2ccc3c(=O)n4c(nc3c2)CCC4)cc1,,inactive: -2.43%
COc1ccccc1NC(=S)N1C2CCC1CC(NC(=O)NC13CC4CC(CC(C4)C1)C3)C2 (stereo not given),"inconclusive [inhibitor, full curve]",
O=C(NCCCN1CCCC1=O)c1cc2nc(-c3ccco3)cc(C(F)(F)F)n2n1,,inactive: -2.38%
COCCNC(=O)c1c(NC(=O)c2ccc(Br)o2)n(Cc2ccccc2)c2nc3ccccc3nc12,active: 13.1 µM,
C#CCOCCOCCOCCNc1nc(N2CCN(C(=O)[C@H]([C@@H](C)CC)n3cc(CCCCN)nn3)CC2)nc(N2CCN(C(=O)[C@H](CCCCN)n3cc(CC(C)O)nn3)CC2)n1 (stereo not given in full),,inactive: -1.35%
CC(C)Cc1nc(N2CCN(C(=O)c3ccco3)CC2)c(C#N)c2c1CCC2,active: 2.33 µM,

# Reference: PubChem BioAssay AID504832 (National Center for Advancing Translational Sciences (NCATS), 2011)
